Laboratory results reported in PMC4336329 (PLoS ONE, 2015).
Hit rate of the full screen: of about 310,000 compounds, about 2,200 (0.71%) showed an effect of 50% or more. The effect is printed as a negative number. The list shows a part of the results.

molecular target: human ether-à-go-go-related gene (hERG) potassium channel (human, UniProt Q12809); test: primary screen, population patch clamp on CHO cells stably expressing hERG
Sequence (Q12809 whole entry, looked up): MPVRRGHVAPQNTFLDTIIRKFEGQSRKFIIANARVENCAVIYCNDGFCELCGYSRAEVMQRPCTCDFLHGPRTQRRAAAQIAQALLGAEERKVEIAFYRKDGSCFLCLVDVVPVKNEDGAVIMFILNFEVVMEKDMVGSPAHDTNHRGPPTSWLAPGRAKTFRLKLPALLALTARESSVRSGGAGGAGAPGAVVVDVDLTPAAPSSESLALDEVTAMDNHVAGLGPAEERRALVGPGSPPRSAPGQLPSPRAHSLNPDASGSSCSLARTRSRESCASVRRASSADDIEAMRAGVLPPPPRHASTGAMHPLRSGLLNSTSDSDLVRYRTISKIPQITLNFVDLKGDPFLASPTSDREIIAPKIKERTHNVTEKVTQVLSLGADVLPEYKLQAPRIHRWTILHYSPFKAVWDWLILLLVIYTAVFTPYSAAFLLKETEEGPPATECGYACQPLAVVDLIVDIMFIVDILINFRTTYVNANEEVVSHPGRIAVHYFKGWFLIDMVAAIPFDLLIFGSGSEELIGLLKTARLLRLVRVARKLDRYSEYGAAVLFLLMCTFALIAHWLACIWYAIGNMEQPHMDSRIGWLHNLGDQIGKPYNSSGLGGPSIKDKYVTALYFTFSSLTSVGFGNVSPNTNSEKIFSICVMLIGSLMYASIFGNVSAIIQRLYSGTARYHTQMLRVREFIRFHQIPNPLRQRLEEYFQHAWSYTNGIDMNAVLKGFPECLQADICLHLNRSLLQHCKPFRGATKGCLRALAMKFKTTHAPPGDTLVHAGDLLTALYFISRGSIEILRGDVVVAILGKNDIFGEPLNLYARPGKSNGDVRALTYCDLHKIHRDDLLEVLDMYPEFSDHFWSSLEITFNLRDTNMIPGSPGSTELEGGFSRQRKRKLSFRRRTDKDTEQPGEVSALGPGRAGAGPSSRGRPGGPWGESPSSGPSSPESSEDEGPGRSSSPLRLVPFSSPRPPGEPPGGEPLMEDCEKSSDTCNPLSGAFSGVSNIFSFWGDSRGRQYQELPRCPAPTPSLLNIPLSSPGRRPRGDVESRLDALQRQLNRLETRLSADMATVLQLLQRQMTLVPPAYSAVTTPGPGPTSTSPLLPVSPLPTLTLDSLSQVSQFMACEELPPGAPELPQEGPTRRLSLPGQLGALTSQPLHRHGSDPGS

Row | SMILES | hERG current change (%, negative = inhibition) at 1uM [%]
1 | CCc1ccc(-n2c(=O)c3c(C)c(C(=O)N(C)C)sc3n(CC(=O)NCC3CCCO3)c2=O)cc1 (centres unmarked) | -5.42
2 | c1ccc(Cn2nnc3c(N4CCCC4)ncnc32)cc1 | 0.773
3 | Cc1ccc(C(=O)NCCNc2ncc(C(F)(F)F)cc2Cl)cc1[N+](=O)[O-] | -2.1
4 | CCOc1ccc(NC(=S)NCCCN2CCN(C3CCCCC3)CC2)cc1 | 0.716
5 | N#C/C(=C/c1cn(CC(=O)O)c2ccccc12)c1ccc(F)cc1 | -2.24
6 | Cc1ccc(C)c(OCC(=O)NC(Cc2c[nH]c3ccccc23)C(=O)O)c1 (centres unmarked) | 16
7 | O=C(N/N=C/C(Cl)=C\c1ccccc1)c1cccs1 | 12.6
8 | COc1ccccc1N1CCN(C(=O)c2sc3nc(-c4ccccc4)cn3c2C)CC1 | -6.39
9 | CC(=O)c1ccc(NC(=O)CCNC(=O)c2ccccc2Cl)cc1 | -19.8
10 | COc1ccccc1N(CCC#N)C(=O)CSc1nnc2ccccn12 | 2.12
11 | N#Cc1c(/N=C/c2ccc(-c3ccccc3C(=O)O)o2)sc2c1CCCC2 | 18.3
12 | Cc1cccc(C2c3[nH]c4ccccc4c3CCN2C(=O)c2noc3c2CCCC3)n1 (centres unmarked) | 2.76
13 | CCN(Cc1nc(-c2ccc(OC)c(OC)c2)no1)C(=O)c1ccoc1C | 15.5
14 | Cc1nn(CCCC(=O)NCc2ccccc2)c(C)c1[N+](=O)[O-] | 7
15 | CCCC(=O)N1CCN(c2nc(CC(C)C)c3c(c2C#N)CCC3)CC1 | 0.0417
16 | O=C(CSc1nc(Nc2ccccc2)nc(N2CCOCC2)n1)Nc1cc(Cl)ccc1O | 6.18
17 | O=C(O)c1cccc(Nc2ccc([N+](=O)[O-])cn2)c1 | 15.7
18 | NC(=O)c1c(N)sc(=S)n1CC1CCCO1 (centres unmarked) | 10.9
19 | CC(C)CNC(=O)CCc1nc(-c2ccccc2)no1 | 1.87
20 | COc1ccccc1C(=O)Nc1ccc(Oc2nnc(-c3ccc(C)cc3)c3ccccc23)cc1 | 20.2
21 | CC1CC(C)CN(C(=S)SCc2nc(N)nc(Nc3ccccc3)n2)C1 (centres unmarked) | 7.72
22 | CCNC(=S)N1CCN(c2ccccc2OCC)CC1 | 14.6
23 | CCOC(=O)c1[nH]cnc1C(=O)N[C@@H](C)c1ccccc1 | 11.1

Row | SMILES | hERG current change (%, negative = inhibition) at 1uM [%]
24 | C[C@@H](CSc1ccc(Br)cc1)CN1CC[C@H](O)CCC1=O | 13.2
25 | O=C(CCC1CCCC1)NNC(=O)c1ccc(F)cc1 | -1.96
26 | COc1ccc(-c2nc3scc(-c4ccccc4)n3n2)cc1 | 11.8
27 | Cn1nc(C(F)(F)F)c(-c2ccccc2)c1NC(=O)c1ccco1 | 13.3
28 | COc1ccc(NC(=O)Nc2ccc(CC(=O)O)cc2)cc1 | 19.7
29 | CCN(CC)S(=O)(=O)c1ccc(NC(=S)NC(=O)C(C)C)cc1 | 3.03
30 | Cc1cccc(CC(C)NC(=O)c2cc(COc3ccc(F)cc3F)on2)n1 (centres unmarked) | -22.7
31 | Cn1c(SCc2cccnc2)nc2c(c1=O)SCC2 | 2.1
32 | Nc1nc(SCC(=O)Nc2ncc(Cl)cc2Cl)n[nH]1 | 11.6
33 | O=c1c2oc3ccccc3c2[nH]c(=S)n1-c1ccc(F)cc1 | 10.3
34 | CCCOc1ccc(N2C(=O)CC(N(C(=O)c3ccco3)c3ccc(OCCC)cc3)C2=O)cc1 (centres unmarked) | -8.67
35 | COC(=O)CSc1nc2cc(C)cc(C)c2cc1C#N | 13.2
36 | CC(=O)N(C)c1ccc(N=NC2C(=O)N(C(N)=S)N=C2C)cc1 (centres unmarked) | 10.7
37 | CC(=O)c1ccc(N2CCN(CN3C(=O)CC4(CCCC4)C3=O)CC2)c(F)c1 | 6.48
38 | CCOC(=O)c1ccc(NC(=O)C2(c3ccc(OC)cc3)CCOCC2)cc1 | 4.96
39 | Cc1ccc(C(=O)C2CCN(CC(=O)NC3CCCCC3)CC2)cc1 | -13.6
40 | S=c1[nH]ncn1/N=C/c1ccccn1 | 2.63
41 | Cc1ccc(-c2noc(CSc3nnc(-c4ccncc4)n3-c3ccc(F)cc3)n2)cc1 | 6.46
42 | COc1ccc(NC(=O)c2sc(SC)nc2N)cc1 | 7.92
43 | C/C=C(\C)C(=O)OC1C(C)=C2C(C1OC(=O)CCCCC)C(C)(OC(C)=O)CC(OC(=O)CCC)C1(O)C2OC(=O)C1(C)O (centres unmarked) | 1.84
44 | CCOC(=O)c1cccc(NC(=O)/C=C/c2cccc([N+](=O)[O-])c2)c1 | -1.74
45 | Cn1c(N)c(C#N)c(C#N)c1-c1ccccc1 | -0.668
46 | O=C(Nc1ccccc1)OC(CN1CCCCC1)C(F)(F)F (centres unmarked) | 8.2

Row | SMILES | hERG current change (%, negative = inhibition) at 1uM [%]
47 | COc1ccccc1N=Cc1c(C)[nH]n(-c2ccc(C)cc2C)c1=O | 12.6
48 | CCOC(=O)C1C(=O)NC(c2ccccc2)=NC1c1cccc(Br)c1 (centres unmarked) | 16.7
49 | O=C(c1ccc2c(c1)OCO2)N(c1ccc(Cl)cc1)C1C=CS(=O)(=O)C1 (centres unmarked) | -1.21
50 | Fc1cccc(F)c1-c1nc(-c2ccc(Cl)cc2)no1 | 11.5
51 | Br.CC(C)(C)c1ccc(OCC(=O)NN2Cc3ccccc3C2=N)cc1 | -6.2
52 | Cn1c(CO)cnc1SCc1ccccc1 | 3.67
53 | CCOC(=O)C1=C(C)NC(=O)NC1/C=C/c1ccccc1OC (centres unmarked) | 14.9
54 | CC/C(O)=C1\C(=O)CCCC1=NCCc1nc2ccccc2[nH]1 | 13.7
55 | O=C(OCc1cc(=O)n2cc(Br)ccc2n1)c1ccc(Cl)c(S(=O)(=O)NCc2ccccc2)c1 | 12.7
56 | CCOC(=O)c1ccc(-c2nnc(-c3ccc(Cl)cc3Cl)o2)cc1 | -6.75
57 | Cc1ccc(S(=O)(=O)N2CCN(CCNC(=O)C(=O)NCc3ccccc3)CC2)cc1 | 10
58 | C[S+](CC[C@H](N)C(=O)O)C[C@H]1O[C@@H](n2cnc3c(N)ncnc32)[C@H](O)[C@@H]1O.[Cl-] (some centres unmarked) | 8.95
59 | Cc1cccc(N(C)S(=O)(=O)c2c[nH]c3ccc([N+](=O)[O-])cc23)c1 | 11.9
60 | CC(=O)c1cccc(NC(=O)NC2CC(=O)N(c3ccc4c(c3)OCCO4)C2)c1 (centres unmarked) | 3.93
61 | CC(NC(=O)CN1c2cccc3cccc(c23)S1(=O)=O)c1ccc(S(N)(=O)=O)cc1 (centres unmarked) | 3.5
62 | O=C(CCN1CCN(c2ccc(Cl)cc2)CC1)Nc1ccccc1F | 5.25
63 | COc1ccc(OC)c(NC(=O)C2CCCNC2=O)c1 (centres unmarked) | 4.53
64 | CC(Cc1ccccc1)NCCC(=O)NC(C)Cc1ccccc1 (centres unmarked) | 12.1
65 | CC(C)(C)[C@H]1C=C(C(=O)O)O[C@@H](OCCCCO)C1 | 11.2
66 | Cc1ccccc1OCCC(=O)OCC(=O)Nc1c(F)cccc1F | 14.7
67 | COc1cc(/C=N/NC(=O)c2csc3c2CCCC3)ccc1OCCN1CCOCC1 | 1.6
68 | COc1c2c(cc3oc(=O)ccc13)OC(C)(C)C=C2 | 2.48
69 | O=c1ccc(Br)c[nH]1 | 8.12

Row | SMILES | hERG current change (%, negative = inhibition) at 1uM [%]
70 | COc1ccc(Cl)cc1N=Cc1c(O)c2ccccc2oc1=O | 22.6
71 | COC(=O)Nc1ccc(S(=O)(=O)NCCO)cc1 | -3.07
72 | COCCNC(=O)[C@H]1C[C@@H]1[C@H](NP(=O)(c1ccccc1)c1ccccc1)c1ccccc1 | 6.92
73 | Nc1ccc(S(=O)(=O)c2ccccc2)nc1 | 4.93
74 | Cc1c(CCC(C)C)c(=O)n2c([nH]c3ccccc32)c1C#N | 19.8
75 | CC1CC(=O)N(CC(=O)Nc2ccc(F)cc2)c2ccccc2S1(=O)=O (centres unmarked) | 9.51
76 | Cc1ccc(C)c2[nH]c(=O)c(CCNC(=O)c3ccc(S(=O)(=O)N4CCOCC4)cc3)cc12 | 9.64
77 | O=C(NCCNC(=O)c1cccc(O)c1)c1cccc(O)c1 | 13.1
78 | COc1ccc(CCNC(=O)c2cc3sc(Cl)cc3n2C)cc1OC | 9.36
79 | O=C(Nc1cccc(NC(=O)c2ccccc2)n1)c1ccccc1 | 6.31
80 | O=C(NCC1CCCO1)C1CCN(C2CCN(CCCC3CCCC3)CC2)CC1 (centres unmarked) | -5.53
81 | Cc1cc(C)c(C)c(S(=O)(=O)N2CCC(C(=O)OCC(=O)N3c4ccccc4NC(=O)C3(C)C)CC2)c1C | 9.76
82 | COc1cc(NC(=O)C2CC2)c(OC)cc1NC(=O)CCC(=O)NC1CCN(Cc2ccccc2)CC1 | 11.5
83 | Fc1ccc(CNc2ncnc3cc(Cl)ccc23)cc1 | 20.1
84 | CCCC/C(=N/O)c1c(C)[nH]c2ccccc12 | 1.98
85 | Cc1c(C(=O)O/N=C(\N)c2ccccn2)cccc1[N+](=O)[O-] | 4.21
86 | O=C(Nc1ccncc1)c1cc(-c2ccccn2)nc2ccc(Br)cc12 | 13.7
87 | Cc1cc(Cl)c2oc(C(=O)N3CCN(c4cccc(C)n4)CC3)c(C)c2c1 | 14
88 | CSc1nc2ccccc2n1CC(=O)Nc1c(C)cccc1C | 9.29
89 | Cc1nc2ccccc2c2nc3ccccc3n12 | -1.26
